Some of the results follow. Values were computed here from the reads of four pooled replicates and scatter widely.
target: T1, Pho4 (S. cerevisiae) (UniProt P07270); assay: relative binding free energy (BET-seq); higher = weaker binding; conditions: reference: library average
T1 sequence: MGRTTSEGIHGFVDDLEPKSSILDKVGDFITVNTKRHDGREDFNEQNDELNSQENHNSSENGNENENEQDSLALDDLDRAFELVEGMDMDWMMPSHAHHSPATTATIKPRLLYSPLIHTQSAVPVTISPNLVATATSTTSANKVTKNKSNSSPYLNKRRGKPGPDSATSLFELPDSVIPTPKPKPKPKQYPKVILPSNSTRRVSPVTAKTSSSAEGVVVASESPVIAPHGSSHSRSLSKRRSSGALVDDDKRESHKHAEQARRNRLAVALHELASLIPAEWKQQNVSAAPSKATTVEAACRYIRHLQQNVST

Sequence | relative binding free energy
ACGATCACGTGTTATG | 0.07 kcal/mol
TTAGTCACGTGTGCTT | -0.02 kcal/mol
TTGCTCACGTGTATTG | 0.21 kcal/mol
GCGGTCACGTGTGCGG | 0.03 kcal/mol
GTGATCACGTGGCGAG | -0.02 kcal/mol
GTTACCACGTGGAGGT | 0.11 kcal/mol
GGTTTCACGTGGAGTA | 0.38 kcal/mol
AGGTACACGTGGCTGG | 0.03 kcal/mol
TACGGCACGTGGTGGC | -0.12 kcal/mol
CTTGTCACGTGGCTAT | 0.05 kcal/mol
GGTATCACGTGAGGAT | 0.3 kcal/mol
GGTGACACGTGAGGAC | 0.24 kcal/mol
TATTACACGTGGTTTG | 0.03 kcal/mol
GGTGTCACGTGGCTTC | 0.18 kcal/mol
GTGCGCACGTGTGCGG | -0.09 kcal/mol
TGTAGCACGTGAATCT | 0.42 kcal/mol
CGGGCCACGTGCGGGC | -0.13 kcal/mol
GGCGGCACGTGATGGC | 0.2 kcal/mol
TATAGCACGTGAATGG | 0.25 kcal/mol
TGAAGCACGTGGGGAC | -0.13 kcal/mol
GTGTTCACGTGTGGCT | 0.48 kcal/mol
TGTGCCACGTGAATTA | 0.2 kcal/mol
GTTAGCACGTGGGATG | -0.14 kcal/mol
TGTTCCACGTGATTTG | 0.18 kcal/mol
TGTAGCACGTGTGAGC | -0.05 kcal/mol
TTAAACACGTGTAGTT | -0.04 kcal/mol

Sequence | relative binding free energy
GGAGACACGTGGGGGA | -0.08 kcal/mol
TCTATCACGTGGGATT | 0.27 kcal/mol
AGGTACACGTGGTATA | -0.03 kcal/mol
GACGACACGTGGTGTG | -0.02 kcal/mol
AGCCTCACGTGGGTGT | 0.09 kcal/mol
TTATTCACGTGCTTGG | 0.23 kcal/mol
CTATGCACGTGGGAGT | -0.27 kcal/mol
ATTTACACGTGTTTAT | 0 kcal/mol
GTTGTCACGTGGTATG | 0.13 kcal/mol
GGTAACACGTGTCTGG | 0.06 kcal/mol
AGGGTCACGTGATGGA | 0.2 kcal/mol
GTCGTCACGTGTTATG | 0.19 kcal/mol
AGATGCACGTGTTGAT | -0.02 kcal/mol
TATGACACGTGGATTT | 0.16 kcal/mol
ATTTACACGTGAAGGT | 0.32 kcal/mol
ATTGGCACGTGCTAGT | -0.34 kcal/mol
TAGATCACGTGGGGCG | -0.02 kcal/mol
TTCAGCACGTGTTGTC | -0.01 kcal/mol
GGAGACACGTGGGGAG | -0.15 kcal/mol
AATGTCACGTGAGCGG | 0.32 kcal/mol
TGTTCCACGTGGGTTT | -0.07 kcal/mol
TTGGGCACGTGCTATT | -0.2 kcal/mol
TTCAGCACGTGAGTTT | 0.19 kcal/mol
TGAGGCACGTGTCACG | 0.02 kcal/mol
TGGTGCACGTGTAGAT | 0.24 kcal/mol
TTTCTCACGTGGCGTT | 0.15 kcal/mol

Sequence | relative binding free energy
GGTGGCACGTGTCTCG | -0.14 kcal/mol
CGCGGCACGTGGTGTT | -0.22 kcal/mol
TTTGGCACGTGCGTTA | -0.21 kcal/mol
AATGGCACGTGATAGT | -0.03 kcal/mol
GGGGGCACGTGTCCTG | -0.18 kcal/mol
ATATGCACGTGCGTGT | -0.16 kcal/mol
TGTAGCACGTGGCTTG | -0.25 kcal/mol
GGCTGCACGTGGTGGC | -0.06 kcal/mol
CGTGTCACGTGTTATG | -0.04 kcal/mol
AAAGTCACGTGTGTAC | 0.11 kcal/mol
GTGCTCACGTGGGGCA | -0.01 kcal/mol
CAATGCACGTGAGGGT | 0.25 kcal/mol
TGTTTCACGTGAACGG | 0.45 kcal/mol
GGTTTCACGTGAGGAA | 0.43 kcal/mol
TTAGGCACGTGCGTGA | -0.17 kcal/mol
AGCGACACGTGGATGG | 0.08 kcal/mol
TAAAACACGTGGTTTT | 0 kcal/mol
TGTCACACGTGGATAT | 0.06 kcal/mol
TCGTACACGTGGTTTA | -0.03 kcal/mol
TGTAACACGTGTCGAT | 0.09 kcal/mol
AGAAGCACGTGGTGGA | -0.01 kcal/mol
TCAAGCACGTGGGGGT | -0.44 kcal/mol
TGTTACACGTGAAGAT | 0.37 kcal/mol
TCAGACACGTGGTATG | -0.11 kcal/mol
TGGAACACGTGTTGGG | 0.12 kcal/mol
GGTAGCACGTGGTACT | -0.1 kcal/mol

Sequence | relative binding free energy
ATTAACACGTGTGAGT | -0.05 kcal/mol
AGAATCACGTGGTATG | 0.1 kcal/mol
TATGGCACGTGAGAGG | 0.09 kcal/mol
CTTATCACGTGTTGTT | 0.21 kcal/mol
ATTGACACGTGAGCTG | 0.08 kcal/mol
ATGTGCACGTGGTAGA | -0.12 kcal/mol
GAGAGCACGTGGCTAG | -0.03 kcal/mol
GGGGTCACGTGATTTA | 0.31 kcal/mol
CGAGGCACGTGTGGGC | -0.16 kcal/mol
TATGTCACGTGCGGAG | 0.04 kcal/mol
AATAACACGTGTTGTT | -0.03 kcal/mol
AATTTCACGTGGGTCG | 0.26 kcal/mol
TGGAGCACGTGTGAAG | -0.02 kcal/mol
AATTACACGTGTTGGC | 0.24 kcal/mol
AATATCACGTGGGGGC | 0.1 kcal/mol
TGGAGCACGTGTTTTT | 0 kcal/mol
CTAGGCACGTGTGGGG | -0.11 kcal/mol
AATTTCACGTGTTGTT | 0.31 kcal/mol
TTCAGCACGTGTGCGG | -0.12 kcal/mol
TATTTCACGTGAAGGG | 0.42 kcal/mol
GATTGCACGTGGTAGA | 0.06 kcal/mol
GGTTGCACGTGTTGCG | 0.09 kcal/mol
GTTTCCACGTGGTGCT | 0.07 kcal/mol
CATGGCACGTGGTTAT | -0.09 kcal/mol
GGGTTCACGTGGGGGG | 0.24 kcal/mol
TGTGCCACGTGCGGGG | -0.14 kcal/mol

Sequence | relative binding free energy
ACGGTCACGTGTTGGT | 0.04 kcal/mol
AAGTACACGTGGGGAA | -0.06 kcal/mol
CTGGTCACGTGTTGTA | 0.01 kcal/mol
GTGAACACGTGGGCAG | -0.19 kcal/mol
GTAACCACGTGTAGGG | -0.07 kcal/mol
TGTTGCACGTGGTGTG | 0 kcal/mol
TTATTCACGTGGGATT | 0.16 kcal/mol
TATCGCACGTGATGGG | 0.06 kcal/mol
TGTGCCACGTGCAGTT | 0.06 kcal/mol
GTGGGCACGTGCTTAT | -0.1 kcal/mol
TTTGGCACGTGATGGG | 0.1 kcal/mol
CAATACACGTGTAGGT | 0.04 kcal/mol
ATTATCACGTGTGGCT | 0.07 kcal/mol
GGTATCACGTGTATAG | 0.2 kcal/mol
ATATTCACGTGGTTCA | -0.01 kcal/mol
TTGAGCACGTGATTCG | -0.05 kcal/mol
ACGGGCACGTGAGTTA | 0.09 kcal/mol
AGAGTCACGTGAATAG | 0.27 kcal/mol
GATGCCACGTGTGCGG | -0.07 kcal/mol
TTGAGCACGTGATCGT | -0.12 kcal/mol
GTTCTCACGTGCGGTG | 0.17 kcal/mol
AGTGCCACGTGTGAGA | -0.02 kcal/mol
CGGAACACGTGGGGTA | -0.15 kcal/mol
TTGAGCACGTGATGCT | 0.06 kcal/mol
TTGCTCACGTGCTTTT | 0.13 kcal/mol
TTGGGCACGTGTAGGA | 0 kcal/mol

Sequence | relative binding free energy
TTCTCCACGTGGTTTT | 0 kcal/mol
GGGGTCACGTGTTGAT | 0.21 kcal/mol
ATCTTCACGTGGGCTT | 0.4 kcal/mol
TGTTGCACGTGGTAGA | 0.01 kcal/mol
TTGAGCACGTGGTGAT | -0.07 kcal/mol
TGGTGCACGTGACGCT | 0.02 kcal/mol
TATATCACGTGTAAAT | 0.23 kcal/mol
GTGTGCACGTGACATT | 0.05 kcal/mol
TATATCACGTGTGCGA | 0.18 kcal/mol
TATCTCACGTGTGAGG | 0.22 kcal/mol
GTGGACACGTGGCATA | 0.01 kcal/mol
CATCTCACGTGGTTGG | 0.21 kcal/mol
CTTTTCACGTGTTATA | 0.22 kcal/mol
CGTGTCACGTGTTGGT | 0.14 kcal/mol
TTCCTCACGTGGGGGA | 0.09 kcal/mol
AGGTTCACGTGGGTAC | 0.22 kcal/mol
GAGGGCACGTGGTGAG | -0.03 kcal/mol
TGTTCCACGTGGGTAG | -0.11 kcal/mol
TTTAGCACGTGTTGCG | 0.03 kcal/mol
GAATTCACGTGAGGTT | 0.38 kcal/mol
GAAAACACGTGAGGGG | 0.16 kcal/mol
GTGGACACGTGTGTTG | 0.08 kcal/mol
GGGAACACGTGTTATA | 0.2 kcal/mol
GTTGGCACGTGATAGA | 0.09 kcal/mol
GCTGGCACGTGATTGT | 0.08 kcal/mol
GGGCACACGTGGTGAT | 0.11 kcal/mol

Sequence | relative binding free energy
CAATTCACGTGATTGG | 0.51 kcal/mol
CTGAGCACGTGAGGGT | 0.11 kcal/mol
GTAGGCACGTGGATGC | -0.11 kcal/mol
GGATCCACGTGTATGT | 0.08 kcal/mol
TTTTGCACGTGTTACG | 0.05 kcal/mol
TTCGGCACGTGGTGAT | -0.13 kcal/mol
GAGGGCACGTGTAAGT | 0.13 kcal/mol
TGAAGCACGTGTGATT | 0.05 kcal/mol
TGCTTCACGTGTATAT | 0.29 kcal/mol
TTGTACACGTGGAAAG | 0.09 kcal/mol
ACGTGCACGTGGTGAT | -0.26 kcal/mol
CATGGCACGTGGTTAA | -0.13 kcal/mol
GGCTTCACGTGGCTGG | 0.18 kcal/mol
AGTGCCACGTGGGTGA | -0.35 kcal/mol
GTGTGCACGTGACTGT | 0.11 kcal/mol
TTCTACACGTGAAGGG | 0.17 kcal/mol
ATCATCACGTGATAGT | 0.23 kcal/mol
TAGAGCACGTGGTGGC | -0.16 kcal/mol
TGGGGCACGTGTCTAA | -0.06 kcal/mol
TTAGGCACGTGCGGTA | -0.07 kcal/mol
AGGGTCACGTGGTTGC | 0.19 kcal/mol
TATATCACGTGGGGCG | 0.02 kcal/mol
TGCGTCACGTGGGAAG | -0.09 kcal/mol
TTTTGCACGTGCTTCG | 0 kcal/mol
GGTATCACGTGGTCGT | 0.05 kcal/mol
GGGAACACGTGTGGCT | 0.11 kcal/mol

Sequence | relative binding free energy
TGAGACACGTGTTGGG | 0.02 kcal/mol
TTTATCACGTGGTATG | 0.07 kcal/mol
GGGTTCACGTGCGTGC | 0.17 kcal/mol
AAGGACACGTGGTTTT | -0.04 kcal/mol
AGGTTCACGTGGAGAT | 0.08 kcal/mol
CTTTACACGTGGTGGC | 0.14 kcal/mol
AGGTCCACGTGTAATG | 0.07 kcal/mol
GGACGCACGTGGCGTG | -0.17 kcal/mol
GTTATCACGTGATTCG | 0.33 kcal/mol
ATAGGCACGTGTTCGT | -0.27 kcal/mol
TGTGCCACGTGAATGG | 0.1 kcal/mol
TTGTCCACGTGGACGT | 0.03 kcal/mol
AAGGTCACGTGCAGTG | 0.05 kcal/mol
AAAATCACGTGAGGAT | 0.39 kcal/mol
GTGATCACGTGGTAGG | 0.07 kcal/mol
GGGCGCACGTGGAGGA | -0.13 kcal/mol
CGTATCACGTGTATGG | 0.08 kcal/mol
TCTGTCACGTGTAGCG | 0.19 kcal/mol
GGTGTCACGTGTACAA | 0.27 kcal/mol
TGAACCACGTGTGTGG | -0.01 kcal/mol
GCGTGCACGTGTGTAG | 0.07 kcal/mol
GTTGTCACGTGTGAGG | 0.22 kcal/mol
TTGGACACGTGAGGAT | 0.28 kcal/mol
TGGATCACGTGTTTCT | 0.16 kcal/mol
TCGTTCACGTGGAGCT | 0.29 kcal/mol
AGATGCACGTGTGGAG | 0.15 kcal/mol

Sequence | relative binding free energy
GGAGTCACGTGAATTA | 0.27 kcal/mol
TTCTTCACGTGTTGCA | 0.27 kcal/mol
CGTGGCACGTGTAAAT | 0.08 kcal/mol
TTAGTCACGTGATCAG | 0.07 kcal/mol
GGTATCACGTGGCGTC | 0.08 kcal/mol
AGTTGCACGTGGGTGT | -0.12 kcal/mol
AAGTTCACGTGGCATG | 0.11 kcal/mol
AGTAACACGTGGTGAA | -0.09 kcal/mol
ACGGTCACGTGTGGTC | 0.14 kcal/mol
GTGGACACGTGTTGGG | 0.16 kcal/mol
TCGAACACGTGTTGTG | -0.08 kcal/mol
GGGGGCACGTGGTGGC | -0.12 kcal/mol
GATGGCACGTGTTATA | -0.1 kcal/mol
TTATGCACGTGCAAGT | 0.04 kcal/mol
TGGTGCACGTGCAGAG | -0.13 kcal/mol
TTCGACACGTGTAGTG | 0.09 kcal/mol
ATTAGCACGTGTCAGT | 0.06 kcal/mol
TGGGCCACGTGGGAGT | -0.2 kcal/mol
TCGTGCACGTGGTGGA | 0 kcal/mol
TTGGGCACGTGGATAA | -0.07 kcal/mol
TGAGTCACGTGTGTGT | 0.15 kcal/mol
ATAGACACGTGCATGG | 0.11 kcal/mol

Reference: the BET-seq Pho4 binding data (Le et al. 2018)
